PubChem BioAssay AID686978 (National Center for Advancing Translational Sciences (NCATS), 2013)
Where “and” joins values, the source holds several entries; their conditions need not be identical. Identical values can stand only once. In all, about 420,000 compounds went through this assay and about 64,000 (15%) were called active. Inconclusive results, whose numbers are uncertain, are shown with a selection of clear calls. The call rests on the fitted dose curve; in most records, active means well fitted inhibition curve with a large enough effect; inconclusive means small, poorly fitted or top-dose-only effect; inactive means flat fitted curve, though single readings scatter. A potency beside an inconclusive call is a rough fit, not a confirmed value.

experiment: qHTS for Inhibitors of human tyrosyl-DNA phosphodiesterase 1 (TDP1): qHTS in cells in absence of CPT; details: DT40 Tdp1-/- hTDP1 cells, no CPT, ATP luminescence, 48 h; activity change, negative = growth inhibition: at 46.2 µM (top of the series) unless noted; further: nearly all actives have a fitted effect of over 55% in size
Outline: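 Growth of hTDP1-complemented DT40 Tdp1-knockout cells is measured by ATP luminescence after at least 48 hr compound exposure at 37 °C, with DMSO substituting for the 20 nM CPT used in the parallel screen.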
On the % scale 0 is the no-effect control and ±100 the full control effect; potency means the concentration at half of the fitted maximal effect; tags describe the fitted curve by direction and shape.

For Cc1ccc(C(=O)N2CCCC(C(=O)Nc3cccc(-c4ccc(F)cc4)c3)C2)cn1 (stereo unspecified), which Potency is on record?
Its Potency is active: 8.2 µM.

With O=c1c(-c2ccccc2)nc2cnc(N3CCNCC3)nc2n1Cc1cccs1 as the compound, how does the Potency read?
The Potency was inconclusive: 25.9 µM [inhibitor, single point].

For CC1CN(C(=O)/C(=C/c2ccco2)NC(=O)c2ccccc2)CC(C)O1 (stereo unspecified), which “activity change, negative = growth inhibition” value is on record?
The value was inactive: 15.4%.

For O=C1C(c2ccccc2)=[N+]([O-])c2ccccc21, which Potency is on record?
Its Potency is active: 4.11 µM.

With O=C(Nc1ccc(S(=O)(=O)NCc2cccnc2)cc1)c1ccco1 as the compound, how does the Potency read?
The Potency was inconclusive: 14.6 µM [inhibitor, partial curve].

For Cc1cc(C)c(NC(=S)NCCCSC2CCCCC2)c(C)c1, which Potency is on record?
Its Potency is inconclusive: 20.6 µM [inhibitor, single point].

With O=C(CN1CCN(C(=O)c2c(F)cccc2F)CC1)Nc1ccccc1C(F)(F)F as the compound, how does the Potency read?
The Potency was inconclusive: 29.1 µM [inhibitor, single point].

Which Potency does the source give for Cc1ccc(S(=O)(=O)NCc2ccc(N3CCN(C(=O)OC(C)(C)C)CC3)cc2)cc1 here?
The Potency was active: 16.4 µM.

For O=C(OCc1cn([C@H]2CN(C(=O)c3cccs3)[C@@H](c3ccc(Cl)cc3)C[C@@H]2O)nn1)c1ccccc1, which Potency is on record?
The Potency was inconclusive: 29.1 µM [inhibitor, single point].

For CCn1c(COc2cccc(C)c2)nnc1SCC(=O)NC1CCCC1, which Potency is on record?
The Potency was inconclusive: 20.6 µM [inhibitor, single point].

For COc1cccc(NS(=O)(=O)c2ccc3[nH]cc(C(=O)N(C)C4CCCCC4)c(=O)c3c2)c1, which Potency is on record?
The Potency was inconclusive: 29.1 µM [inhibitor, single point].

For CCCCc1nn2c(=O)cc(COC(=O)c3ccccc3NC(=O)c3ccccc3OC)nc2s1, which “activity change, negative = growth inhibition” value is on record?
The value was inactive: 1.87%.

Which Potency does the source give for CC(=O)c1cc2c(cc1NC(=O)CN1CCCCCC1)OCO2 here?
The Potency was inconclusive: 23.1 µM [inhibitor, partial curve].

For COc1cc(-c2noc(C)c2C(=O)NCc2ccc(C)o2)cc(OC)c1OC, which Potency is on record?
The Potency was inconclusive: 25.9 µM [inhibitor, partial curve, poor fit].

For COc1ccc(S(=O)(=O)N(C)c2ccc(C(=O)N3CCOCC3)cc2)cc1, which Potency is on record?
Its Potency is inconclusive: 25.9 µM [inhibitor, single point].

With CN(C)S(=O)(=O)c1ccc(=S)[nH]c1 as the compound, how does the Potency read?
Its Potency is inconclusive: 18.4 µM [inhibitor, single point].

Which Potency does the source give for O=C(c1cc(-c2ccccn2)nc2c(Cl)cccc12)N1CCN(C(=O)C2CCCO2)CC1 (stereo unspecified) here?
The Potency was inconclusive: 29.1 µM [inhibitor, single point].

For NC(=O)CC(NC(=O)Cc1cccc2ccccc12)c1ccc(NCc2ccccc2)c([N+](=O)[O-])c1 (stereo unspecified), which Potency is on record?
The Potency was inconclusive: 29.1 µM [inhibitor, single point].

With Cc1nn(CCCC(=O)NC(C)c2ccccc2)c(=O)c2nn(-c3ccccc3)c(C)c12 (stereo unspecified) as the compound, how does the “activity change, negative = growth inhibition” value read?
Its value is inactive: -10.6%.

Which Potency does the source give for COC(=O)C[C@H]1c2cc(C(F)(F)F)ccc2S(=O)(=O)N1Cc1ccccc1OC here?
Its Potency is inconclusive: 22.4 µM [inhibitor, single point].

Which Potency does the source give for O=Cc1cn(Cc2ccccc2)nc1-c1cccnc1 here?
Its Potency is inconclusive: 18.4 µM [inhibitor, single point].

For O=C(Nc1nnc(-c2ccccc2F)s1)C1CCN(S(=O)(=O)c2ccc(Cl)cc2)CC1, which activity change, negative = growth inhibition is on record?
Its activity change, negative = growth inhibition is inconclusive: -30.7% [inhibitor].

For Cn1c(C(=O)N2CCCC(C(=O)NCCCc3ccccc3)C2)cc2sccc21 (stereo unspecified), which Potency is on record?
Its Potency is active: 10.3 µM.

Which “activity change, negative = growth inhibition” value does the source give for CCOC(=O)Cc1c(C)nc2c(-c3ccccc3)cnn2c1C here?
Its value is inactive: -23.3%.

With CN(C)Cc1ccccc1Sc1ccc2c(c1)CCCC2 as the compound, how does the Potency read?
The Potency was inconclusive: 29.1 µM [inhibitor, single point].

Which Potency does the source give for Cc1ccc(-c2nc(SCC(=O)NCC3CCCO3)c(-c3ccc(C)cc3)[nH]2)cc1 (stereo unspecified) here?
The Potency was inconclusive: 29.1 µM [inhibitor, single point] and inconclusive: 16.4 µM [inhibitor, single point].

With Cc1nc(NC(=O)/C=C/c2ccc(C(C)(C)C)cc2)sc1C(=O)N(C)C as the compound, how does the Potency read?
The Potency was inconclusive: 18.4 µM [inhibitor, single point].

Which “activity change, negative = growth inhibition” value does the source give for OC[C@@H]1CN(Cc2ccccc2)C[C@H](n2cnc3c(NC4CC4)ncnc32)O1 here?
Its value is inactive: -28.2%.

For O=C(C=C(C(=O)c1ccccc1)c1ccccc1)c1ccccc1, which Potency is on record?
Its Potency is active: 20.6 µM.

Which “activity change, negative = growth inhibition” value does the source give for CC(C)(C)c1ccc(C(=O)n2cnc3ccccc32)cc1 here?
The value was inactive: -27.7%.

Which Potency does the source give for CC(C)NC(=O)C1(C)CCCN1Cc1ccccc1 (stereo unspecified) here?
The Potency was inconclusive: 20.6 µM [inhibitor, single point].

With COc1ccc(NS(=O)(=O)c2cccc(C(=O)N/N=C/c3cccs3)c2)cc1 as the compound, how does the “activity change, negative = growth inhibition” value read?
Its value is inactive: -26.1%.

Which Potency does the source give for CCCCC/C(=N\NC(=O)CCC(=O)NCc1ccccc1)c1ccccc1 here?
Its Potency is inconclusive: 20.6 µM [inhibitor, single point].

With COc1ccc(N/C(=N/c2nc(C)cc(C)n2)NC(=O)c2ccccc2)cc1 as the compound, how does the Potency read?
The Potency was inconclusive: 13 µM [inhibitor, partial curve, poor fit].

Which “activity change, negative = growth inhibition” value does the source give for Cc1cn(COC/C=C/c2ccccc2)c(=O)[nH]c1=O here?
The value was inactive: -2.88%.

For COc1cn(-c2ccccc2)nc1C(=O)NCc1ccc(C)cc1, which Potency is on record?
The Potency was inconclusive: 20.6 µM [inhibitor, single point].

For NC(=O)c1cc(S(=O)(=O)NCC2CCC(C(=O)Nc3ccc(Cl)cc3)CC2)cs1 (stereo unspecified), which Potency is on record?
The Potency was inconclusive: 3.66 µM [inhibitor, full curve].

For COC(=O)C(NC(C)=O)(Nc1nc(C)cs1)C(F)(F)F (stereo unspecified), which “activity change, negative = growth inhibition” value is on record?
The value was inactive: 1.78%.

For COc1ccc(CCNC(=O)C2CC3Cn4c(nc5cc(Cl)c(Cl)cc54)C3N2C)cc1 (stereo unspecified), which Potency is on record?
Its Potency is inconclusive: 18.4 µM [inhibitor, single point].

Which Potency does the source give for Cc1nnc(N2CCN(C(=O)Nc3cccc(C(F)(F)F)c3)CC2)c2nn(-c3ccccc3)c(C)c12 here?
The Potency was inconclusive: 29.1 µM [inhibitor, single point].

With CCN(CC)C(=O)Cn1cnc2sc(C(=O)NCCCN3CCOCC3)c(C)c2c1=O as the compound, how does the “activity change, negative = growth inhibition” value read?
Its value is inactive: -8.02%.

Which Potency does the source give for N=C1/C(=C\c2ccc(-c3cccc(C(=O)O)c3)o2)C(=O)N=C2SC=C(c3ccccc3)N12 here?
The Potency was inconclusive: 29.1 µM [inhibitor, single point].

For O=C1C(=Cc2cn(-c3ccccc3)nc2-c2ccc(OCc3ccccc3)cc2)SC(=S)N1CCS(=O)(=O)O, which Potency is on record?
The Potency was inconclusive: 29.1 µM [inhibitor, single point].

With CCN1C(=O)C(CC(=O)Nc2cccc(C(C)=O)c2)S/C1=N\c1ccccn1 (stereo unspecified) as the compound, how does the Potency read?
Its Potency is inconclusive: 10.3 µM [inhibitor, partial curve, poor fit].

For COC(=O)C1=CCCCC(O)=C1C(=O)OC, which “activity change, negative = growth inhibition” value is on record?
The value was inactive: -3.35%.

With CCOc1ccc(NC(=O)CSC2=Nc3ccccc3C3=NC(CC(=O)NCc4ccc5c(c4)OCO5)C(=O)N23)cc1 (stereo unspecified) as the compound, how does the Potency read?
The Potency was inconclusive: 25.9 µM [inhibitor, single point].

Which Potency does the source give for COc1ccc([N+](=O)[O-])cc1/C=N/Nc1nn[nH]n1 here?
The Potency was inconclusive: 29.1 µM [inhibitor, single point].

For Cc1ccc(C)c(-n2nnnc2SCC(=O)c2ccc3c(c2)NC(=O)CO3)c1, which Potency is on record?
The Potency was inconclusive: 29.1 µM [inhibitor, single point].

For O=C(NCC(=O)N(Cc1cccs1)C(C(=O)NC1CCCC1)c1ccncc1)c1ccco1 (stereo unspecified), which “activity change, negative = growth inhibition” value is on record?
Its value is inactive: -3.64%.

For COc1ccccc1NS(=O)(=O)c1cc(NC(=O)c2ccc(=O)[nH]c2)ccc1N1CCOCC1, which Potency is on record?
The Potency was active: 16.4 µM.

Which Potency does the source give for Cc1cccc(/C=N/NC(=O)c2cc(C)nc3ccccc23)n1 here?
Its Potency is inconclusive: 3.26 µM [inhibitor, partial curve].

For CC1(C)Cc2c(sc3nc4n(c(=N)c23)CCC4)CO1, which “activity change, negative = growth inhibition” value is on record?
Its value is inactive: -1.75%.

Which “activity change, negative = growth inhibition” value does the source give for CCC1CCCCN1CCCNC(=O)CNC(=O)c1nn(-c2ccc(OC)c(Cl)c2)c(=O)c2ccccc12 (stereo unspecified) here?
The value was inactive: -25.9%.

Which Potency does the source give for COc1cc(/C=C2\CCC(C3CCCC3)C2=O)ccc1OC(C)C (stereo unspecified) here?
Its Potency is inconclusive: 29.1 µM [inhibitor, single point].

Which Potency does the source give for COc1cc(C)ccc1OCCSc1nnc(-c2ccc(C)cc2)o1 here?
Its Potency is inconclusive: 10.3 µM [inhibitor, partial curve].

For Cc1ccc(C(=O)c2oc3ccccc3c2NC(=O)Cc2coc3c(C)c(C)ccc23)cc1, which “activity change, negative = growth inhibition” value is on record?
The value was inactive: -4.84%.

For CC1(C(=O)NS(=O)(=O)C2CC2)CCCN(C(=O)COc2ccc(Cl)cc2Cl)C1 (stereo unspecified), which Potency is on record?
Its Potency is inconclusive: 16.4 µM [inhibitor, single point].

Which Potency does the source give for COc1ccc(-n2cnnc2SCC(=O)Nc2nc(C)c(Cl)cc2Cl)cc1 here?
The Potency was inconclusive: 2.31 µM [inhibitor, partial curve].

For O=C(NCCN1CCOCC1)c1ccc(NS(=O)(=O)c2ccccc2)cc1, which “activity change, negative = growth inhibition” value is on record?
Its value is inactive: 8.23%.

With Nc1cccc(Oc2ccc([N+](=O)[O-])cc2)c1 as the compound, how does the “activity change, negative = growth inhibition” value read?
The value was inactive: -28.3%.

For CCN(C(=O)c1cn(CC)c(=O)c2cc(OC)c(OC)cc12)c1ccccc1C, which Potency is on record?
Its Potency is inconclusive: 29.1 µM [inhibitor, single point].

Which activity change, negative = growth inhibition does the source give for Cc1c(NC(=O)c2cc3nc(-c4ccc(Cl)cc4)cc(C(F)(F)F)n3n2)c(=O)n(-c2ccccc2)n1C here?
Its activity change, negative = growth inhibition is inconclusive: -32.2% [inhibitor].

With Cn1cc(CN2CCc3ccccc3C2)c2ccccc21 as the compound, how does the Potency read?
Its Potency is inconclusive: 18.4 µM [inhibitor, partial curve].

Which Potency does the source give for O=C(OCc1cc(=O)n2c3c(sc2n1)CCCC3)c1cccc(NC(=O)c2ccccc2F)c1 here?
Its Potency is inconclusive: 25.9 µM [inhibitor, single point].

Which Potency does the source give for Cc1ccc(-n2nnnc2-c2cnc3ccc(Cl)cc3c2-c2ccccc2)cc1 here?
The Potency was inconclusive: 20.6 µM [inhibitor, single point].

Which Potency does the source give for O=C(Nc1ccc(NS(=O)(=O)c2ccccc2)cc1)c1ccccc1Cl here?
Its Potency is inconclusive: 23.1 µM [inhibitor, single point].
